The whole screen tested about 360,000 compounds, of which about 7,500 (2.1%) were called active. This list was built around the results that the source calls inconclusive (neither active nor inactive); the mix of calls is not that of the screen. Calls follow the shape of the dose curve; as a rule, active = well fitted cell-killing curve with a large enough effect; inconclusive = small, poorly fitted or top-dose-only effect, or effect the other way, or another doubt; inactive = no such curve, though single readings can be large or run the other way. No potency is given beside an inconclusive call; the fits are too rough.
Assay: qHTS for induction of synthetic lethality in tumor cells producing 2HG: qHTS for the HT-1080-IDH1KD cell line;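 as to activity, negative = toxicity: 0% = DMSO wells and -100% = cell-free medium wells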
Details: HT-1080 IDH1 knockdown viability, ATP luminescence, 48 h; activity, negative = toxicity: at 46.1 µM (top of the series) unless noted
Procedure, shortened: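 Knockdown cells (IDH1KD HT-1080) received compounds 2 h after plating at 750 cells/well and were kept 48 h at 37 °C in 5% FBS RPMI. A CellTiter-Glo luminescence read gave % activity for curve fitting.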
Potency is read from the fitted curve at half-maximal effect; tags tell the direction and shape of the fitted curve.

Structure (SMILES) | Potency | activity, negative = toxicity
CSc1ncc(Cl)c(C(=O)C(C#N)c2nc3c(C)cc(C)cc3c(=O)[nH]2)n1 (stereo unspecified) | inactive | 
O=C(O)C1CN(C(=O)c2cccc(Br)c2)C1 | inactive | 
O=C(NCCCN1CCOCC1)c1ccc2c(=O)n(Cc3ccccc3)c(=S)[nH]c2c1 | active: 16.4 µM | 
CN(C)c1ccc(NC(=O)c2cc3c(=O)n4ccccc4nc3n2C)cc1 | inactive | 
COc1ccc(C(=O)NC(=S)Nc2ccc(Cc3ccncc3)cc2)cc1 | active: 20.6 µM | 
COCCNC(=O)C1(C)CCCN(Cc2ccc(-c3ccccn3)cc2)C1 (stereo unspecified) | inconclusive [rising, single point] | 
O=C(CSc1cccc2cccnc12)OCC(=O)c1ccccc1 | active: 32.6 µM | 
CCOc1cc(CNCCCN2CCOCC2)cc(Br)c1OCC(=O)Nc1cccc(C(F)(F)F)c1 | inconclusive [cytotoxic, single point] | 
COc1cccc(NC(=O)c2cc(Cl)nnc2Cl)c1 | inconclusive [cytotoxic, single point] | 
COc1ccc2[nH]c3c(c2c1)CCN1C(=O)C(CC(=O)NCC24CC5CC(CC(C5)C2)C4)C[C@H](C(=O)N(C(C)C)C(C)C)[C@@]31C (stereo partly specified) | inconclusive [cytotoxic, partial curve] | 
Cc1cc(=O)[nH]c(SCC(=O)NCCOc2ccccc2)n1 | inactive | 
Cc1cccc(C)c1NC(=O)Cn1c(=O)c2cccn2c2ccccc21 | inactive | 
COc1ccc(CNC(=O)Nc2nc(C(N)Cc3ccc(Cl)cc3)cs2)cc1 (stereo unspecified) | active: 16.4 µM | 
CN(C)S(=O)(=O)Nc1cc(F)cc(F)c1 | inconclusive [cytotoxic, single point] | 
COc1cc(C)c(S(=O)(=O)NOCc2ccc([N+](=O)[O-])cc2)c(C)c1C | inconclusive [cytotoxic, single point] | 
COc1ccc(CCNC(=O)CSCc2ccc(F)cc2)cc1OC | inactive | 
Cc1nc2c(OCc3cccc(Cl)c3)cccn2c1N(C)Cc1cccs1 | inconclusive [cytotoxic, single point] | 
COC(=O)c1ccc(Nc2cc(C)nc3ccccc23)cc1 | active: 20.6 µM | 
COc1cc2c(c(OC)c1OC)-c1ccc(OC)c(=O)cc1C(NC(C)=O)CC2 (stereo unspecified) | inconclusive [cytotoxic, full curve] | 
CC1(C)CC(=O)C=C(NC2=CC3OC(c4ccccc4)OCC3OC2=O)C1 (stereo unspecified) | active: 20.6 µM | 
Cc1nn(Cc2ccccc2Cl)c2sc(C(=O)NC(C)(C)C)cc12 | inconclusive [cytotoxic, single point] | 
CN(C)CCCN(C(=O)c1cc(-c2cccs2)nc2ccccc12)c1nc2ccc(F)cc2s1 | active: 20.6 µM | 
Cn1ccc2c(-c3ccc(C(F)(F)F)cc3)cc3c(c21)C1CCC3O1 (stereo unspecified) | inconclusive [cytotoxic, single point] | 
Cc1ccc(S(=O)(=O)Nc2ccccc2C=NNC(=O)c2ccncc2)cc1 | inconclusive [cytotoxic, single point] | 
CCCOc1c(Br)cc(C2C3=C(CCCC3=O)N(CC)C3=C2C(=O)CCC3)cc1OC | inconclusive [cytotoxic, partial curve] | 
COc1cccc(NC(=O)CN(C)C(=O)c2ccccc2CCc2ccccc2)c1 | inconclusive [cytotoxic, partial curve] | 

Structure (SMILES) | Potency | activity, negative = toxicity
CCOc1ccc2nc(NCCCNC(=O)c3cc(OC)c(OC)c(OC)c3)c(C#N)cc2c1 | inactive | 
Cc1csc(NC(=O)c2nc3nccc(C)n3n2)n1 | inconclusive [cytotoxic, single point] | 
Cc1noc(C)c1COc1ccc(C(=O)NCCc2ccccn2)cc1 | inactive | 
COc1cccc(NC(=S)N(CCc2c(C)[nH]c3ccccc23)Cc2cccs2)c1 | inconclusive [cytotoxic, single point] | 
CCCCCC1CCC(c2ccc(C(N)=O)cc2)CC1 (stereo unspecified) | inconclusive [rising, single point] | 
COCCCn1c(SCc2cccc(OC)c2)nc2cc(OC)c(OC)cc2c1=N | inconclusive [cytotoxic, single point] | 
COc1ccc2[nH]c3c4c(ccc3c2c1)C(=O)C=CC4=O | active: 16.4 µM | 
CC1C(O)=C(c2nc3ccccc3[nH]2)C(=N)N1c1ccccc1 (stereo unspecified) | inconclusive [cytotoxic, single point] | 
Fc1ccc(CNCc2ccccc2C(F)(F)F)cc1 | inactive | 
COc1ccc(N(Cc2cc3ccc(C)cc3[nH]c2=O)S(=O)(=O)c2ccccc2)cc1 | inconclusive [cytotoxic, single point] | 
Cc1c(C(=O)NCCSCc2ccc(Cl)cc2Cl)cccc1[N+](=O)[O-] | inconclusive [cytotoxic, single point] | 
NC(CSC(c1ccccc1)(c1ccccc1)c1ccc2c(c1)OCO2)C(=O)O (stereo unspecified) | active: 18.4 µM | 
CCN(CCN(C)C)C(=O)c1ccc2c(c1NCCO)C(=O)c1ccccc1C2=O | inconclusive [cytotoxic, single point] | 
O=C(Nc1ccc(OCC(F)(F)C(F)F)c(C(F)(F)F)c1)c1ccccc1O | active: 13 µM | 
COc1ccccc1CNC(=O)c1cc(-c2ccncc2)nc2c(Cl)cccc12 | inactive | 
CCCCOc1ccc(Cl)cc1CSc1nnc(CC)n1N | inconclusive [cytotoxic, single point] | 
CCc1ccc(-c2cc(C)no2)cc1S(=O)(=O)N1CCOc2ccccc21 | inconclusive [cytotoxic, partial curve] | 
CNC(=O)c1nc(C)c(C2(C)CC(c3cccc([N+](=O)[O-])c3)=NO2)s1 (stereo unspecified) | inactive | 
COC(=O)c1nc2cc(C)ccn2c1F | inactive | 
CC(=O)Oc1ccc(Cn2c(C)c(C(=O)NCc3cccc(C(F)(F)F)c3)sc2=O)cc1 | inconclusive [cytotoxic, single point] | 
Cc1[nH]c2c(C)cccc2c1CN1CCC(CO)(Cc2ccccc2)CC1 | inconclusive [cytotoxic, single point] | 
COc1ccc(Cl)cc1NC(=O)CN(C)CC(=O)Nc1ccccc1C(F)(F)F | inactive | 
CC1(C(=O)NCc2ccccc2Br)CCN1Cc1ccc2ccccc2c1 (stereo unspecified) | inconclusive [cytotoxic, single point] | 
COc1cccc(/C=N\NS(=O)(=O)c2ccccc2)c1OC | inactive | 
CCn1c(CNC(=O)COc2ccc(C(C)C)cc2)nnc1SCC(=O)Nc1ccccc1C(C)C | inconclusive [cytotoxic, single point] | 
Cc1ccc(S(=O)(=O)Nc2cc(-c3nn(C)c(=O)c4ccccc34)ccc2N2CCOCC2)cc1 | active: 10 µM | 

Structure (SMILES) | Potency | activity, negative = toxicity
O=c1cc(CSc2nnc(Nc3ccccc3F)s2)nc2sccn12 | active: 18.4 µM | 
CC(C)CC(=O)Nc1ccc(Oc2ccc3c(c2)C(=O)NC3=O)cc1 | inactive | 
O=C(c1cc2cc(Br)ccc2o1)N1CCN(c2ccccc2)CC1 | inactive | 
COC(=O)c1cnc(Oc2ccc(NC(=O)NC(=O)c3c(OC)cccc3OC)cc2)cc1C(F)(F)F | active: 1.3 µM | 
Cc1ccc(-n2nnnc2Sc2nc([N+](=O)[O-])nn2C)cc1C | inconclusive [cytotoxic, single point] | 
O=C(c1ccccc1)c1cc2ccc(O)cc2oc1=O | inconclusive [cytotoxic, single point] | 
CCO[C@H]1OC(C(=O)Nc2ccccc2)=C[C@@H](c2csc3ccccc23)[C@@H]1CCCO | inconclusive [cytotoxic, single point] | 
C[C@H]1c2cccc(O)c2C(O)=C2C(=O)[C@]3(O)C(O)=C(C(N)=O)C(=O)[C@@H](N(C)C)C3[C@@H](O)C21 (stereo partly specified) | active: 23.1 µM | 
S=c1[nH]nc(-c2cc(-c3ccccc3)n[nH]2)n1/N=C/c1ccc(Br)s1 | inconclusive [cytotoxic, single point] | 
O=C(c1ccccc1)n1c2ccccc2c(=O)n1-c1ccccc1CCl | inactive | 
CCCOc1cccc(-c2cc(C(=O)NN)c3ccccc3n2)c1 | inconclusive [cytotoxic, single point] | 
O=C(NC(=S)N(CCCCO)C1CCCCC1)c1sc2ccccc2c1Cl | inconclusive [cytotoxic, single point] | 
COc1ccccc1NS(=O)(=O)c1cc(NC(=S)Nc2cc(C)cc(C)c2)ccc1Cl | inactive | 
O=C(COc1cccc2c1CCN(Cc1ccc(Br)cc1)C2=O)N1CCOCC1 | inactive | 
O=S1(=O)CCS(=O)(=O)C1c1ccccc1 | active: 20.6 µM | 
CCOC(=O)c1[nH]c2ccc(OC)cc2c1N=CN(C)C | inactive | 
CCOc1cc(CNCCO)cc(Br)c1OCc1ccc(Cl)cc1 | inconclusive [cytotoxic, single point] | 
CC(NC(=O)/C(=C\c1ccco1)NC(=O)c1ccccc1Br)C(=O)O (stereo unspecified) | inactive | 
COc1cc(O)oc1C=Nc1ccc(C(F)(F)F)cc1 |  | inconclusive: 29.6%
COc1ccc(-c2c(C#N)c(N)n(N)c(=O)c2C#N)cc1Cl | inactive | 
CCOC(=O)c1cc2ccccc2n1C1CCN(C)CC1 | inactive | 
CCOc1ccc(S(=O)(=O)Nc2ccccc2C(=O)Nc2ccccc2N2CCOCC2)cc1 | inactive | 
CCN(CC)c1ccc(C2NC(=O)c3ccccc3N2)cc1 (stereo unspecified) | inconclusive [cytotoxic, single point] | 
CC[N+](CC)(CC)CC(=O)Nc1ccc(SC(F)F)cc1 |  | inconclusive: -23.7% [cytotoxic]

Source: PubChem BioAssay AID686971 (National Center for Advancing Translational Sciences (NCATS), 2013)
